Measured values from PubChem BioAssay AID938 (National Center for Advancing Translational Sciences (NCATS), 2007).
Out of some 73,000 compounds screened, about 1,800 (2.5%) were called active. Inconclusive results, whose numbers are uncertain, are shown with a selection of clear calls. The call rests on the fitted dose curve; in most records, active means well fitted activation curve with a large enough effect; inconclusive means small, poorly fitted or top-dose-only effect; inactive means no such curve, though single readings can be large or run the other way. Potencies of inconclusive entries are left out as doubtful fits.

Test: qHTS Assay for Agonists of the Thyroid Stimulating Hormone Receptor: Activators of Intracellular cAMP Concentrations in Parental HEK 293; further: nearly all actives have a fitted effect of over 55% in size; on activation: % of control where 0% means no effect
Details: parental HEK293 CNG cAMP sensor, membrane potential fluorescence; activation: at 57.1 µM (top of the series) unless noted
Summary of the method: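 Parental HEK 293 cells stably expressing a modified CNG channel (no TSHR) report cAMP rise as membrane depolarization. Membrane potential dye with 100 uM RO 20-1724 was loaded for 60 min at room temperature, then compound added for 30 min; fluorescence read at 590 nm.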
Potency means the concentration at half of the fitted maximal effect; tags describe the fitted curve by direction and shape.

Row | Structure (SMILES) | Potency | activation
1 | C=CCn1c(SCc2nc3c(c(=O)[nH]c(=O)n3CCCC)n2CCC)nnc1-c1ccccc1 | inconclusive [activator, single point] | –
2 | CCCCN1CCCCC1C(=O)Nc1c(C)cc(C)cc1C (stereo not drawn) | active: 20 µM | –
3 | C=CCn1c(CCC(=O)O)ccc1-c1ccc(OC)cc1 | inactive | –
4 | COc1ccc(COn2c(=O)c(C)[n+]([O-])c3ccccc32)cc1OC | inactive | –
5 | CC(C)n1c(SCC(=O)Nc2ccccc2N2CCCCC2)nc2c1c(=O)n(C)c(=O)n2C | active: 20 µM | –
6 | NC(=O)c1cc[n+](CC2=C(C(=O)[O-])N3C(=O)[C@@H](NC(=O)Cc4cccs4)[C@@H]3SC2)cc1 | inactive | –
7 | COC(=O)c1cc(-c2c(C)oc3cc(OC)ccc3c2=O)c(C)o1 | inconclusive [activator, single point] | –
8 | O=C(NCc1ccco1)c1cnn2c(C(F)F)cc(-c3ccccc3)nc12 | inconclusive [activator, partial curve] | –
9 | COc1ccc(-c2nc3cnc(N(C)C)nc3n(C3CC3)c2=O)cc1 | inactive | –
10 | CCOC(=O)c1cccc(NC(=O)c2cc3sccc3n2C)c1 | active: 10 µM | –
11 | COc1ccc(S(=O)(=O)Cc2ccc(C(=O)NCCCN(C)c3ccccc3)o2)cc1 | inconclusive [activator, single point] | –
12 | O=C(Nc1ccon1)c1cc2c(s1)CCCC2 | inconclusive [activator, single point] | –
13 | CN(C)C(=O)c1ccc(-c2nc(NCc3cccs3)c3ccccc3n2)cc1 | inconclusive [activator, partial curve] | –
14 | COCCNc1nc(C)nc2c1nc(-c1ccccc1)n2C1CCN(Cc2ccccc2)C1 (stereo not drawn) | inconclusive [activator, partial curve] | –
15 | CC(NC(=O)c1ccccc1)c1nc2ccccc2n1Cc1ccc(C#N)cc1 (stereo not drawn) | inconclusive [activator, single point] | –
16 | CCOC(=O)N1CCN(c2nc3ccccc3nc2C(C#N)S(=O)(=O)c2ccc(C)cc2)CC1 (stereo not drawn) | inactive | –
17 | O=C(CSCc1nc2ccccc2[nH]1)N1CCN(c2ccc(F)cc2)CC1 | inactive | –
18 | Cc1cnc(CNc2ccnc(-c3ccccc3CN(C)C)n2)cn1 | inactive | –
19 | CSc1ccccc1NC(=O)Cn1c(-c2cscn2)nc2ccccc21 | inconclusive [activator, single point] | –
20 | O=C(CCCc1cccs1)Nc1nc2c(s1)CCCC2 | inconclusive [activator, partial curve] | –
21 | CCOc1ccc(Nc2ncnc3c2cnn3-c2ccccc2)cc1 | inactive | –
22 | Nc1nonc1-c1noc(N2CCCCC2)n1 | active: 10 µM | –
23 | Cc1nc(C)c(-c2csc(Nc3cccnc3)n2)s1 | inactive | –
24 | O=C(O)c1ccccc1NCn1c(=S)sc2ccccc21 | – | inactive: -3.7% [at 11.4 µM]
25 | NCC1CCC(C(=O)O)CC1 (stereo not drawn) | inactive | –
26 | CCn1c(Cn2nnc(-c3ccccc3)n2)nnc1SCc1ccc(Cl)c(Cl)c1 | inactive | –

Row | Structure (SMILES) | Potency | activation
27 | c1cncc(-c2noc(C34CC5CC(CC(C5)C3)C4)n2)c1 | inconclusive [activator, partial curve] | –
28 | COc1ccc(-c2noc(CCC(=O)NCc3cc(Br)ccc3OC)n2)cc1 | inconclusive [activator, partial curve] | –
29 | CC(Oc1ccccc1Cl)C(=O)N(Cc1ccco1)C1CCS(=O)(=O)C1 (stereo not drawn) | inconclusive [activator, partial curve] | –
30 | CCCCC(c1nnnn1Cc1ccco1)N1CCN(C(=O)c2ccco2)CC1 (stereo not drawn) | inconclusive [activator, partial curve] | –
31 | COc1ccccc1CNc1nc(-c2cccnc2)nc2ccccc12 | inconclusive [activator, single point] | –
32 | CC(C)n1nc(C(=O)Nc2nc3ccc(S(C)(=O)=O)cc3s2)c2ccccc2c1=O | inconclusive [activator, partial curve] | –
33 | COCCCN(C(=O)c1ccco1)c1nc(-c2cc(OC)ccc2OC)cs1 | inconclusive [activator, single point] | –
34 | CCc1ccc(NC(=O)C2CC(=O)N=C(N)S2)cc1 (stereo not drawn) | inconclusive [activator, single point] | –
35 | CCCCC(c1nnnn1C1CCCC1)N1CCN(C(=O)c2ccco2)CC1 (stereo not drawn) | inconclusive [activator, partial curve] | –
36 | O=C(c1oc2ccccc2c1CSCc1ccccc1)N1CCN(c2ncccn2)CC1 | active: 10 µM | –
37 | Clc1ccc(C(c2nnnn2C2CCCCC2)N(Cc2cccnc2)Cc2ccco2)cc1 (stereo not drawn) | active: 3.16 µM | –
38 | CN(C)CCN(C)Cc1ccc2c(c1)Cc1ccccc1-2 | inconclusive [activator, single point] | –
39 | CCOC(=O)c1oc2cccc(O)c2c1CN(Cc1ccccc1)C(C)=O | inconclusive [activator, single point] | –
40 | CN(CC(=O)N1CCc2ccccc21)S(=O)(=O)c1ccc(Cl)cc1 | inconclusive [activator, partial curve] | –
41 | Cc1cc(C)n2nc(SCC(=O)c3ccc[nH]3)nc2n1 | inactive | –
42 | CSc1nnc(Cn2c(=O)sc3ccccc32)n1C | inconclusive [activator, single point] | –
43 | O=C(NCCCn1ccnc1)c1cn(-c2ccccc2)nc1-c1ccccc1 | inactive | –
44 | CC(C)CC(C(=O)Nc1ccc2c(c1)OCCO2)N1C(=O)c2ccccc2C1=O (stereo not drawn) | inconclusive [activator, single point] | –
45 | Cc1ccc(OCCn2c(NC(=O)c3ccco3)nc3ccccc32)cc1 | active: 15.8 µM | –
46 | CCn1c(SCC(=O)Nc2ccccc2C(=O)OC)nnc1-c1ccoc1C | active: 31.6 µM | –
47 | Cn1c(C(=O)N2CCCC(C(=O)NCc3cccs3)C2)cc2sccc21 (stereo not drawn) | inactive | –
48 | Cc1ccc(-c2nnc(CSc3nnc(COc4ccccc4)n3-c3ccccc3)o2)cc1 | active: 25.1 µM | –
49 | COc1ccc(CCn2c(N)c(C#N)c3nc4ccccc4nc32)cc1OC | inactive | –
50 | CN1CCN(CCc2nc3cc(NC(=O)COc4ccccc4)ccc3n2C)CC1 | inactive | –
51 | Cc1cc(C#N)c(C)n1-c1cc(C(F)(F)F)ccc1N1CCOCC1 | active: 12.6 µM | –
52 | CCOC(=O)C1=C(CN2CCC(C)CC2)NC(=O)NC1c1ccc(Cl)cc1 (stereo not drawn) | inactive | –

Row | Structure (SMILES) | Potency | activation
53 | CC(C)CN(C(=O)COC(=O)CCN1C(=O)c2ccccc2C1=O)C1CCS(=O)(=O)C1 (stereo not drawn) | inactive | –
54 | CSc1ccc(C(=O)c2[nH]c(=O)[nH]c2C)cc1 | inconclusive [activator, full curve, poor fit] | –
55 | CCOc1ccccc1NC(=O)COc1cccc(-n2cnnn2)c1 | inconclusive [activator, partial curve] | –
56 | CC1CCCCN1c1nc(-c2ccncc2)nc2ccccc12 (stereo not drawn) | active: 25.1 µM | –
57 | COc1ccc(Oc2ncc3nc(-c4ccc(F)cc4)c(=O)n(C[C@H]4CCCO4)c3n2)cc1 | inconclusive [activator, single point] | –
58 | Cc1cccc(-n2nnnc2SCc2csc(-c3ccccc3)n2)c1 | inconclusive [activator, partial curve] | –
59 | O=C(c1ccccc1)c1coc2ccc(O)c(Cl)c12 | inconclusive [activator, single point] | –
60 | COc1cccc(-c2nc(CSCC(=O)N3CCc4ccccc43)c(C)o2)c1 | inconclusive [activator, single point] | –
61 | CCOC(=O)CSc1nc(NCc2ccco2)c2ccccc2n1 | inactive | –
62 | Cc1ccccc1-c1cc(Nc2ccccc2)ncn1 | inconclusive [activator, single point] | –
63 | COc1ccc(C2c3sc(=O)[nH]c3SC3C4CCC(C4)C23)cc1 (stereo not drawn) | inactive | –
64 | Nc1ccc2oc(CCc3ccccc3)nc2c1 | inactive | –
65 | O=C1CCc2cc(S(=O)(=O)N3CCCC3C(=O)N3CCN(c4ccccc4F)CC3)ccc2N1 (stereo not drawn) | inconclusive [activator, single point] | –
66 | CN(C)c1nc(OCCOC(=O)c2ccccc2)nc(N(C)C)n1 | inactive | –
67 | CCn1nc(NC(=O)c2ccccn2)c2cc3cccc(C)c3nc21 | inconclusive [activator, partial curve] | –
68 | COc1cccc(C(=O)N(Cc2ccc3c(c2)OCO3)Cc2nc3ccccc3c(=O)[nH]2)c1 | inactive | –
69 | COC(=O)[C@@H](NC(=O)c1cc(-c2ccccc2)nc2ccccc12)c1ccccc1 | active: 3.16 µM | –
70 | CC1CN(c2oc(Cc3cccc4ccccc34)nc2C#N)CC(C)O1 (stereo not drawn) | inconclusive [activator, partial curve] | –
71 | Cc1cnc(C(=O)Nc2ccc(-n3cnnn3)cc2)cn1 | inconclusive [activator, single point] | –
72 | O=C(O)CCC(=O)Nc1ccc(Br)cn1 | inconclusive [activator, single point] | –
73 | Cc1nc2c(C(=O)NCCc3ccccc3)c[nH]n2c(=O)c1Cl | inactive | –
74 | O=C(c1ccco1)c1cn(CC(=O)N2CCCCC2)c2ccccc12 | inconclusive [activator, partial curve] | –
75 | O=NO | inactive | –
76 | CC(C)CCNC(=O)C(c1cccs1)N(CC1CCCO1)C(=O)Cn1nnc2ccccc21 (stereo not drawn) | inconclusive [activator, partial curve] | –
77 | CCCCNc1nc(C)nc2c1nc(-c1ccccc1)n2CC1CCCN1CC (stereo not drawn) | active: 15.8 µM | –
78 | COc1ccc(NC(=O)C2CCN(c3nc(C)nc4c3CCC4)CC2)cc1 | active: 31.6 µM | –
